Source: PubChem BioAssay AID504332 (National Center for Advancing Translational Sciences (NCATS), 2011)
Out of some 350,000 compounds screened, about 31,000 (8.9%) were called active. Inconclusive means that the source gave no clear call. Such entries were picked first, then a sample of the others. Calls follow the shape of the dose curve; as a rule, active = well fitted inhibition curve with a large enough effect; inconclusive = small, poorly fitted or top-dose-only effect; inactive = no such curve, though single readings can be large or run the other way. Potencies of inconclusive entries are doubtful fits and often do not repeat.

These molecules were tested against Histone-lysine N-methyltransferase EHMT2 (Homo sapiens) (UniProt Q96KQ7) (assay: qHTS Assay for Inhibitors of Histone Lysine Methyltransferase G9a). Conditions: G9a H3K9 monomethylation, AlphaScreen, 2 h; activity, negative = inhibition: at 59 µM (top of the series) unless noted.
Sequence of UniProt Q96KQ7 (Q96KQ7 whole entry, looked up): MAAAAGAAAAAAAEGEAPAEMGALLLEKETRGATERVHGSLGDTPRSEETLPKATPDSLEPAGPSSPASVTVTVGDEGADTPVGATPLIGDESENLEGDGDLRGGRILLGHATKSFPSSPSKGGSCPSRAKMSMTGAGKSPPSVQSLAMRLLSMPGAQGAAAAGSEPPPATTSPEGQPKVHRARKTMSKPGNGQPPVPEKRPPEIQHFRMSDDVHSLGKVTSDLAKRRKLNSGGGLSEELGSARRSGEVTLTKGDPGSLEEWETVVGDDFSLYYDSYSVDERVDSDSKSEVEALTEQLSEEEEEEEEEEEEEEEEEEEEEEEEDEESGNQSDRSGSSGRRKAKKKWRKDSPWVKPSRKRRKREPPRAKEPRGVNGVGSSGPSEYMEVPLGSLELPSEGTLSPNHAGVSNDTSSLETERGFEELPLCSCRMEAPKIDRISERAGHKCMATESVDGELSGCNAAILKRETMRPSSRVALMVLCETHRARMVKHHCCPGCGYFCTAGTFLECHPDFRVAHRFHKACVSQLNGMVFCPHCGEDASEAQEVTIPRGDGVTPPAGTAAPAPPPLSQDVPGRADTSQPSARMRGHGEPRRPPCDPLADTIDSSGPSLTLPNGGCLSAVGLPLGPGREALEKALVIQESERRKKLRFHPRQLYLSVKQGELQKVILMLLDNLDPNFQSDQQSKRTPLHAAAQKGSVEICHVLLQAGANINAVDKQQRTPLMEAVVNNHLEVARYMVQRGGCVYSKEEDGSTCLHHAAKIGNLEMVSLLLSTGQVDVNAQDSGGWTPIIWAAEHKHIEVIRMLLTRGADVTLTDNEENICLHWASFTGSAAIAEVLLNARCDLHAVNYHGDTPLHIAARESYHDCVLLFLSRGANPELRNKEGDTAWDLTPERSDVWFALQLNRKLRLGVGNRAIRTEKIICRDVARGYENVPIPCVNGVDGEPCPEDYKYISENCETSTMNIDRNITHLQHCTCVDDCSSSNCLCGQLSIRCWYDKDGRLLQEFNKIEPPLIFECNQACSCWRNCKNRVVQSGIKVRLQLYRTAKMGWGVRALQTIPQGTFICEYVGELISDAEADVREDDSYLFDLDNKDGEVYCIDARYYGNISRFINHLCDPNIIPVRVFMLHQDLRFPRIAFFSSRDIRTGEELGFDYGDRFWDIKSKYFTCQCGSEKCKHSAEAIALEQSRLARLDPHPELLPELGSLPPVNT
Outline: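 Readings reflect AlphaScreen signal from monomethyl-H3K9 antibody detection. HMT at 20 nM; substrate b-H3K9 500 nM; cofactor SAM 20 uM; 2 h RT reaction; compounds tested as titrations in qHTS with 15 min preincubation.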
% is scaled to controls: 0 for no effect and ±100 for the full control effect; potency is read from the fitted curve at half-maximal effect; tags tell the direction and shape of the fitted curve.
Also: nearly all actives have a fitted effect of over 75% in size.

Compound	Potency	activity, negative = inhibition
Cc1cc(=O)oc2c1c(C)nn2-c1ccc(C(=O)OC(C)C)cc1	inconclusive: 50.1 µM [inhibitor, partial curve, poor fit]	–
CCC(CC)C(=O)c1c[nH]c(C(=O)NCCc2ccccn2)c1	–	inactive: 36.7% [at 12.7 µM]
CCOC(=O)c1cc(S(=O)(=O)N2CCN(c3ccc(C)cc3C)CC2)[nH]n1	active: 3.98 µM	–
O=[N+]([O-])c1ccc(/C=C/c2ccc3ccccc3n2)cc1	inconclusive: 0.282 µM [inhibitor, full curve]	–
Cc1ccc(-c2nnc3c4ccccc4c(C)nn23)cc1NC(=O)c1ccccc1Cl	inactive	–
O=S(=O)(Nc1ccc(N2CCOCC2)cc1)c1cc(Cl)ccc1Cl	active: 44.7 µM	–
CCC(=O)NC(=S)Nc1ccc(NC(=O)COc2ccc(Cl)c(C)c2)cc1	inactive	–
C/C=C(\C)c1nnc(NC(=O)C(C)C)s1	inconclusive: 70.8 µM [inhibitor, partial curve, poor fit]	–
CSC1=NC(C)(C)C=C(/C=C/c2ccc(Cl)cc2Cl)N1	active: 50.1 µM	–
Cc1ccc(-n2nc(C)c3c2OC(N)=C(C#N)C3c2ccncc2)cc1 (configuration not stated)	active: 44.7 µM	–
CSc1nnc(N2C(=O)C(O)=C(C(=O)c3ccco3)C2c2ccccc2)s1 (configuration not stated)	active: 39.8 µM	–
CN(C)c1ccc(NC(=O)Cn2cc(S(=O)(=O)Cc3cccc(Cl)c3)c3ccccc32)cc1	inconclusive: 3.16 µM [inhibitor, full curve]	–
COCCNC(=O)CSc1ncnc2sc(-c3ccccc3)cc12	inconclusive: 39.8 µM [inhibitor, partial curve, poor fit]	–
CN1C(=O)SC(Nc2cccc3ccccc23)C1=O (configuration not stated)	inconclusive: 39.8 µM [inhibitor, single point]	–
COc1ccc(NC(=O)CN2CCC(Cc3ccccc3)CC2)cc1S(=O)(=O)N1CCOCC1	inconclusive: 0.251 µM [inhibitor, partial curve, poor fit]	–
COc1ccc(NC(=O)[C@H](NC(=O)[C@@H]2Cc3ccccc3CN2)c2ccccc2)cc1	inconclusive: 89.1 µM [inhibitor, single point]	–
O=C(NCC(c1cccs1)N1CCOCC1)c1ccc(Cl)c([N+](=O)[O-])c1 (configuration not stated)	inconclusive: 89.1 µM [inhibitor, single point]	–
COc1ccccc1/C=C(/C(=O)OCC(=O)Nc1ccccc1C)c1ccccc1	inconclusive: 28.2 µM [inhibitor, single point]	–
COc1ccccc1NS(=O)(=O)c1cc(C(=O)NCc2cccnc2)ccc1C	inconclusive: 79.4 µM [inhibitor, partial curve, poor fit]	–
COC(=O)c1c(NC(=O)Nc2ccc(Cl)cc2)sc(C)c1C	inactive	–
O=C(O)CC(C(=O)OCCOc1ccccc1)N1CCOCC1 (configuration not stated)	active: 79.4 µM	–
O=C(CN1CCN(c2ccc(F)cc2)CC1)Nc1nnc(-c2ccccc2)s1	inconclusive: 50.1 µM [inhibitor, partial curve, poor fit]	–
CCC(=O)NC(c1ccc(C)cc1)c1cc([N+](=O)[O-])c2cccnc2c1O (configuration not stated)	inconclusive: 3.16 µM [inhibitor, single point]	–
COC(=O)CSc1nnc(C2COc3ccccc3O2)n1-c1ccccc1 (configuration not stated)	–	inactive: -26.9% [at 12.7 µM]

Compound	Potency	activity, negative = inhibition
CCOC(=O)/C(C#N)=C/c1cn(CCC(=O)O)nc1-c1cccc(Br)c1	inactive	–
Cc1ccc(C2C(C#N)=C(N)SC(N)=C2C#N)cc1	active: 44.7 µM	–
CC(=O)c1cc(-c2ccccc2)n(CCC(=O)Nc2ccc(C)cc2C)c1C	inactive	–
COc1ccc(C(=O)Nc2ccc3c(c2)nc(CN2CCCC2)n3C)cc1	inactive	–
COc1ccc(CCC(=O)NCCc2csc(-c3ccc(C(F)(F)F)cc3)n2)cc1	inactive	–
Cc1cc(C)c2[nH]c(=O)c(CN(CC3CCCO3)C(=S)NCc3ccco3)cc2c1 (configuration not stated)	inactive	–
NC(=O)c1cccn1Cc1cccc(Cl)c1	inconclusive: 89.1 µM [inhibitor, single point]	–
CC1Cc2cc(S(=O)(=O)NCCc3ccccc3)ccc2N1C(=O)C1CCC1 (configuration not stated)	inactive	–
Cc1ccc(C2OC3=C(C(=O)CC(C)(C)C3)C(N)=C2C#N)o1 (configuration not stated)	inconclusive: 50.1 µM [inhibitor, partial curve, poor fit]	–
Cc1noc(C)c1C(=O)Nc1nc2ccccc2s1	inconclusive: 89.1 µM [inhibitor, partial curve, poor fit]	–
CCCOc1ccc(N2C(=O)CC(N(O)c3ccccc3)C2=O)cc1 (configuration not stated)	inconclusive: 89.1 µM [inhibitor, single point]	–
OCC[C@H]1C[C@@H](O)[C@H](O)[C@]2(OCc3ccccc32)O1	–	inactive: -13.5% [at 2.33 µM]
CC(=O)Nc1cccc(/C(C)=N/NS(=O)(=O)c2ccc(C)cc2)c1	active: 50.1 µM	–
Cc1ccc2c(c1)N(C(=O)Nc1cccc(C)c1C)CCO2	inactive	–
CCCS(=O)(=O)c1c(S(=O)(=O)CCC)c2c3ccccc3ccn2c1C(=O)OC	inconclusive: 39.8 µM [inhibitor, single point]	–
CCOC(=O)c1cnc2ccc(C(=O)OC)cc2c1Nc1cccc(C(=O)O)c1	inactive	–
CN(C)S(=O)(=O)c1ccc(NC(=O)CCCNC(=O)c2ccc(Cl)cc2)cc1	inactive	–
O=C(COC(=O)C1CC(=O)N(Cc2ccco2)C1)c1ccc(OC(=O)c2ccco2)cc1 (configuration not stated)	active: 8.91 µM	–
COc1cccc(NC(=O)CN2CCN(CC(=O)Nc3ccccc3Cl)CC2)c1	active: 35.5 µM	–
Cc1cc(Br)ccc1NC(=O)c1ccc(NS(=O)(=O)c2c(C)noc2C)cc1	inconclusive: 3.55 µM [inhibitor, partial curve]	–
O=S(=O)(/N=C(/c1ccc(F)cc1)N1CCCCC1)c1ccc(Cl)cc1	inconclusive: 89.1 µM [inhibitor, single point]	–
COc1ccc(N2C(=O)/C(=C/N(C)C)NC2=S)cc1	active: 3.55 µM	–
Cn1c(/C(C#N)=N/O)nc2ccccc21	inconclusive: 25.1 µM [inhibitor, single point]	–
